Results taken from PubChem BioAssay AID360 (National Center for Advancing Translational Sciences (NCATS), 2006).
Out of some 48,000 compounds screened, about 550 (1.1%) were called active. Not shown: some 4% with an inconclusive outcome. Rule as the data show it: active = potency below about 15 µM; inconclusive = mostly about 16 µM to 33 µM; inactive = weaker than that. Some of the results follow.

The compounds below were run against Lysosomal acid glucosylceramidase (Homo sapiens) (UniProt P04062) (assay: Glucocerebrosidase). Conditions: purified enzyme, resorufin glucoside fluorescence (screen aimed at inhibitors), 20 min.
Method in brief: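 Wild-type enzyme at 0.2 nM final in 50mM citric acid/KH2PO4, 10mM sodium taurocholate, 0.01% tween-20, pH 5.9, with resorufin beta-D-glucopyranoside at 30 uM final. Compounds titrated, 20 min at RT, red fluorescence read; AC50 from titration.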
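Also: the screen sought inhibitors.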
Potency is read from the fitted curve at half-maximal effect.

Sequence of UniProt P04062 (P04062 whole entry, looked up): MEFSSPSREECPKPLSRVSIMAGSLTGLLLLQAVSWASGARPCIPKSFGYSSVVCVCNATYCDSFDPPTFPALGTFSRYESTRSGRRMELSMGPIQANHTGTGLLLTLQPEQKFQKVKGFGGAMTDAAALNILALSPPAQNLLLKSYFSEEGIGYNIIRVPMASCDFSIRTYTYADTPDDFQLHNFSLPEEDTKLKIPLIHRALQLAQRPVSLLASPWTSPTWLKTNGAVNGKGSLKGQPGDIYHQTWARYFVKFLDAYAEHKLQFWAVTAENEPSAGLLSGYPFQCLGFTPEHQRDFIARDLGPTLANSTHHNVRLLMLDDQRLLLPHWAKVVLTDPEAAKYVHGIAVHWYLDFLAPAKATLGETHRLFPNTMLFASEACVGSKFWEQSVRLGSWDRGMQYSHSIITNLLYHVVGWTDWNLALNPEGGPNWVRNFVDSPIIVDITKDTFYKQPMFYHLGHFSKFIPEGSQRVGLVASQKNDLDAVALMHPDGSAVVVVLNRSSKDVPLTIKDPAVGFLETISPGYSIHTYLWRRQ

Potency, inactive:
CC(C)(C)n1nnnc1C(c1cccs1)N1CCCC2(CCCCC2)C1 (stereo not drawn) > 76.9 µM
Oc1ccccc1/C=N/c1c(-c2ccco2)nc2ccccn12 > 76.9 µM
COc1ccc(CCNc2nc(-c3ccco3)cc(C(F)(F)F)n2)cc1OC > 76.9 µM
COC(=O)/C=c1\sc2n(c1=O)C(C)=CC(C)(C)N=2 > 76.9 µM
COc1ccc2c(c1)cc(C(=O)O)n2C > 76.9 µM
Cc1cc(C)nc(/N=C2\NC(=O)CC3C(=O)NCCN23)n1 (stereo not drawn) > 76.9 µM
CCOc1cc(C)c(Cl)cc1S(=O)(=O)n1cnc2ccccc21 > 76.9 µM
Cc1c(C(=O)N2CCCc3ccccc32)oc2ccc(S(=O)(=O)N3CCOCC3)cc12 > 76.9 µM
O=C(Cc1c(F)cccc1Cl)Nc1ccncc1 > 76.9 µM
CC(C)(CO)NC(=O)C(c1ccccc1)c1ccccc1 > 76.9 µM
Cc1ccc(-c2nnc(SCC(=O)Nc3ccccc3N3CCOCC3)o2)cc1 > 76.9 µM
O=C(NCC1CCCO1)C1c2ccccc2C(=O)N1C1CCCCCCC1 (stereo not drawn) > 76.9 µM
O=C(Oc1ccccc1)c1cccc2cccnc12 > 76.9 µM
COc1ccc(CC(=O)NCc2ccccn2)cc1OC > 76.9 µM
CCC1CCCCN1C(=O)COC(=O)c1ccc(S(=O)(=O)N2CCOCC2)cc1 (stereo not drawn) > 76.9 µM
CC(NC(=O)c1ccco1)C(c1cccs1)N1CCN(c2ccc(F)cc2)CC1 (stereo not drawn) > 76.9 µM
Cc1cc(C)n(-c2ccc(C(=O)Nc3ccc(S(=O)(=O)NCc4ccco4)cc3)cc2)n1
CCOC(=O)N1CCC(N(C(=O)Nc2cccc(OC)c2)C(C)CC)CC1 (stereo not drawn) > 76.9 µM
C=CCn1c(N)c(C(=O)N2CCOCC2)sc1=S > 76.9 µM
O=C(CN(C(=O)Cn1nnc(-c2ccc(F)cc2)n1)C1CCCC1)NC1CCCC1 > 76.9 µM
O=c1c2ccccc2nnn1CSc1nnc2sc3ccccc3n12 > 76.9 µM
COc1ccccc1OCCSc1nnc(C)n1-c1ccccc1 > 76.9 µM
N#Cc1cccc(C(c2nnnn2CCc2ccccc2)N2CCN(C3CCCCC3)CC2)c1 (stereo not drawn) > 76.9 µM
Cc1cccc(-n2c(CNC(=O)COc3ccccc3)nnc2SCC(=O)Nc2nccs2)c1 > 76.9 µM
CCOc1ccc(N/C(SC)=C(/C#N)C(N)=O)cc1 > 76.9 µM
CS(=O)(=O)N1CCN(C(=O)C2c3ccccc3Oc3ccccc32)CC1 > 76.9 µM
CCOc1ccccc1N(CC(=O)N1CCOCC1)S(=O)(=O)c1ccccc1 > 76.9 µM
CN(Cc1cc2ccccc2[nH]c1=O)C(=O)C1CCCCC1 > 76.9 µM
O=C(NCc1cccnc1)C1c2ccccc2C(=O)N1Cc1ccco1 (stereo not drawn) > 76.9 µM
O=C(O)CSc1nnc(-c2ccncc2)n1C1CCCCC1 > 76.9 µM
Fc1cccc(-c2cc3nc4c(c(N5CCC6(CC5)OCCO6)n3n2)CCCC4)c1
Cc1nc(NC(=O)COC(=O)C(NC(=O)c2ccco2)C(C)C)c(Cl)cc1Cl (stereo not drawn) > 76.9 µM
O=C(CSCC(=O)Nc1nccs1)Nc1ccccc1 > 76.9 µM
O=C(CCCCCNS(=O)(=O)c1ccc(Br)cc1)NCCN1CCOCC1
Cc1ccc(C(C(=O)NC2CCCC2)N(Cc2ccco2)C(=O)CCC(=O)Nc2ccccn2)cc1 (stereo not drawn) > 76.9 µM
CCn1c(=O)n(CC(=O)N2CCN(c3ccccc3F)CC2)c(=O)c2ccccc21 > 76.9 µM
COc1ccc(NC(=O)c2ccc(-n3nc(C)c[n+]3[O-])cc2)cc1 > 76.9 µM
O=C(CCc1nc(-c2ccccc2F)no1)NC1CCCCC1 > 76.9 µM
Cc1ccccc1CN1CCN(CC(=O)NCCCN2CCN(c3ccc(F)cc3)CC2)C1=O > 76.9 µM
O=C(OC1CSc2nc3ccccc3n2C1)c1ccco1 (stereo not drawn) > 76.9 µM
COCCSc1nc2sc3c(c2c(=O)n1-c1ccccc1)CCN(C)C3 > 76.9 µM
COc1ccc(-c2cc(C(=O)Nc3c(C)nn(Cc4ccccc4Cl)c3C)no2)cc1 > 76.9 µM
Cc1cc(C(=O)CSc2nnc(N)s2)c(C)n1CCc1ccc(Cl)cc1 > 76.9 µM
COc1cccc(-c2cc3nc(-c4ccccc4)cc(N4CCC5(CC4)OCCO5)n3n2)c1 > 76.9 µM
O=C(c1ccc(Cl)c(F)c1F)N1CCCC1 > 76.9 µM
CN(CC(=O)Nc1ccncc1)S(=O)(=O)c1ccccc1 > 76.9 µM
COc1cc2ccccc2cc1C(=O)N1CCN(C)CC1 > 76.9 µM
O=C(CSc1nnc(Cc2ccccc2)n1Cc1ccco1)NC1CCCC1 > 76.9 µM
COc1ccccc1N1CCN(C(=O)c2sc3nc(-c4ccccc4)cn3c2C)CC1 > 76.9 µM
O=C(O)c1cc(NS(=O)(=O)c2cccc3ccccc23)ccc1O > 76.9 µM
CCOC(=O)CSc1cc(C)nc(NC(C)=O)n1 > 76.9 µM
CC(=O)Nc1cccc(N2CCCC2=O)c1 > 76.9 µM
Clc1ccc(-c2nnc3sc(-c4ccc(Br)o4)nn23)cc1 > 76.9 µM
O=C(O)CCN1C(=O)c2ccncc2C1=O > 76.9 µM
O=C(NC1CS(=O)(=O)CC1NCc1ccco1)c1ccccc1 (stereo not drawn) > 76.9 µM
Nc1nnc(CSCc2ccccc2)s1 > 76.9 µM
COCCSc1ccccc1C(=O)N1CCCC1 > 76.9 µM
Cc1cc(C(=O)NCc2cccnc2)cs1 > 76.9 µM
CCn1c(=O)c(C(=O)Nc2cnccn2)c(O)c2ccccc21 > 76.9 µM
Nc1nc2n(n1)C(c1ccco1)CC(c1ccccc1)N2 (stereo not drawn) > 76.9 µM
Cn1ncc2c1ncn1nc(COc3ccc4ccccc4c3)nc21 > 76.9 µM
COC(=O)c1ccc(NC(=O)CSc2nnc(COc3ccccc3)n2C)cc1 > 76.9 µM
COCCNC(=O)C(c1ccc(F)cc1)N(CCOC)C(=O)CCC(=O)Nc1nccs1 (stereo not drawn) > 76.9 µM
Cc1ccc2nc(NC(=O)CCNS(=O)(=O)c3cccs3)sc2c1 > 76.9 µM
CCC1CCCCN1C(=O)N[C@@H](CCSC)C(=O)OC (stereo partly drawn) > 76.9 µM
C=CCn1c(NCc2ccccc2)nc2ccccc21 > 76.9 µM
O=C(O)C1CC=C(Cl)CC1C(=O)NCC1OCCc2ccccc21 (stereo not drawn) > 76.9 µM
Cc1ccc(CNc2nc3ccccc3n3nnnc23)cc1 > 76.9 µM
Cc1ccccc1-n1c(=O)cc(N2CCc3ccccc3C2)[nH]c1=O > 76.9 µM
Cn1c(=O)c2c(-c3ccccc3)n(Cc3cccnc3)cc2n(C)c1=O > 76.9 µM
COCCCNC(=O)C1CCCCN1S(=O)(=O)c1ccc(F)cc1 (stereo not drawn) > 76.9 µM
CCCN1C(=O)SC(CC(=O)Nc2ccccc2)C1=O (stereo not drawn) > 76.9 µM
Cc1cc(OCC(=O)NCc2nc(-c3ccccc3)no2)c(C)cc1Br > 76.9 µM
COCCCNC(=O)CN1C(=O)c2ccccc2C1=O > 76.9 µM
O=C(CSc1nnc(-c2ccccc2Br)o1)N1CCN(C(=O)c2ccco2)CC1 > 76.9 µM
Cc1cccc(-c2nnc(NC(=O)c3ccc(Cl)cc3)o2)c1 > 76.9 µM
COc1ccc(CCNC(=O)CSc2nc(-c3ccco3)cc(C(F)(F)F)n2)cc1 > 76.9 µM
Cn1cnnc1SCC(=O)N1CCC(Cc2ccccc2)CC1
Cc1cc(NC(=O)CSc2nnc(-c3ccc4c(c3)OCCO4)o2)no1 > 76.9 µM
O=C(CSc1nnc(-c2cccs2)o1)OCc1ccccc1 > 76.9 µM
CC1=C(C)CC(C(=O)N2CCN(Cc3ccccc3)CC2)C(C(=O)O)C1 (stereo not drawn) > 76.9 µM
CC1CC(c2ccccc2)n2nc(NC(=O)c3cccs3)nc2N1 (stereo not drawn) > 76.9 µM
Cc1ccc(S(=O)(=O)NCCCNC(=O)c2ccccc2)cc1 > 76.9 µM
Oc1ccc(Br)cc1/C=N/n1cnc2ccccc21 > 76.9 µM
COc1cc(C)nc(SCC(N)=O)n1 > 76.9 µM
COc1ccc(O)c(C2NC(CC(C)C)(C(=O)O)C3C(=O)N(Cc4ccccc4)C(=O)C23)c1 (stereo not drawn) > 76.9 µM
CCCC(=O)Nc1nnc(CC(=O)N2CCCC2)s1 > 76.9 µM
CCOC(=O)C1CCCN(C(=O)c2sc3nc(-c4ccc(F)cc4)cn3c2C)C1 (stereo not drawn) > 76.9 µM
CCOC(=O)N1CCC(NC(=O)c2cccn3c(=O)c4cc(Br)ccc4nc23)CC1 > 76.9 µM
Cc1cc(C)cc(N(C(C)C(=O)Nc2c(C)n(C)n(-c3ccccc3)c2=O)S(C)(=O)=O)c1 (stereo not drawn) > 76.9 µM
CCCCN(C)Cc1c(C)[nH]c2c(Cl)cccc2c1=O > 76.9 µM
CN1CCN(C(=O)CCC(=O)c2ccc(F)cc2)CC1 > 76.9 µM

Potency, active:
CN1CCN(S(=O)(=O)c2ccc(NC(=O)c3ccc(F)cc3)cc2)CC1 14.1 µM
